Results reported in the RNAGym collection of RNA variant scans (doi:10.1073/pnas.2313332121).
Variants at the background level are over-represented here.

B1: TPR 5TU (parent)
chain: GGAUCUUCUCGAUCUAACAAAAAAGACAAAUCUGCCACAAAGCUUGAGAGCAUCUUCGGAUGCAGAGGCGGCAGCCUUCGGUGGCGCGAUAGCGCCAACGUUCUCAACUAUGACACGCAAAACGCGUGCUCCGUUGAAUGGAGUUUAUCAUG

Variants of: B1
Experiment: polymerase ribozyme fitness, log enrichment relative to wild type (log ratio); higher = more active; in vitro selection for triplet polymerase activity
Procedure, shortened: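 Libraries of mutants in each subunit of a heterodimeric triplet polymerase ribozyme were generated by PCR and transcribed. In triplicate, each went through one in vitro selection round: annealing with biotinylated primer, partner subunit and triplets; frozen incubation at −7 °C; gel excision of extended constructs; streptavidin-bead capture; RT-PCR. Fitness, taken from Illumina sequencing of input and output libraries, is the logarithm of a genotype's enrichment over wild-type enrichment, averaged across replicates with inverse-variance weights. The logarithm is base 2, and genotypes needed ≥10 input reads and ≥1 read per output to be kept.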

Row | Variant | polymerase ribozyme fitness (log ratio)
1 | GGAUCUUCUCGAUCUAACAAAAAAGACAAAUCUGCCACAAAGCUUGAGAGCAUCAUCGGAUGCAGAGGCGGCAGCCUUCGGUGGCGCGAUAGCGCCGACGUUCUCAACUAUGACACGCAAAACGCGUGCUCCUUUGAAUGGAGUUUAUCAUG [U55A A97G G133U] | ≤ -4.2
2 | GGAUCUUCUCGAUCUAACAAAAAAGACAAAUCUGCCACAAAGCUUGAGAGCAUCAUCGGAUGCAGAGGCGGCAGCCUUCGGUGGCGCGAUAGCGCCAGCGUUCUCAAGUAUGACACGCAAAACGCGUGCUCCGUUGAAUUGAGUUUAUCAUG [U55A A98G C108G G140U] | ≤ -4.2
3 | GGAUCUUCUCGAUCUAACAAAAAAGACAAAUCUGCCACAAAGCUUGAGAGCAUCAUCGGAUGCAGAGGCGGCAGCCUUCGGUGGCGCGAUAGCGCCAACGUUCUCAGCUAUGACACGCAAAACGCGUGCUCCGUUGAAUGGAGUUUAUCAUG [U55A A107G] | -3.7
4 | GGAUCUUCUCGAUCUAACAAAAAAGACAAAUCUGCCACAAAGCUUGAGAGCAUCAUCGGAUGCAGAGGCGGCAGCCUUCGGUGGCGCGAUAGCGCCAACGUUCUCAACUAUGCCACGCAAAACGCGUGCUCCGUUGAAUGGAGUUUAUCAUG [U55A A113C] | -2.92
5 | GGAUCUUCUCGAUCUAACAAAAAAGACAAAUCUGCCACAAAGCUUGAGAGCAUCAUCGGAUGCAGAGGCGGCAGCCUUCGGUGGCGCGAUAGCGCCAACGUUCUCAACUAUGACUCGCAAAACGCGUGCUCCGUUGAAUGGAGUUUAUCAUG [U55A A115U] | -1.89
6 | GGAUCUUCUCGAUCUAACAAAAAAGACAAAUCUGCCACAAAGCUUGAGAGCAUCAUAGGGUGCAGAGGCGGCUGCCUUCGGUGGCGCGAUAGCGCCAACGUUCUCAACUAUGACACGCAAAACGCGUGCUCUGUUGAAUGGAGUGUAUCAUG [U55A C57A A60G A73U C132U U145G] | -2.26
7 | GGAUCUUCUCGAUCUAACAAAAAAGACAAAUCUGCCACAAAGCUUGAGAGCAUCAUGGGAUGCAGAGGCGGCAGCCUUCGGUGGCGGGAUAGUGCCAACGUUCGCAACUAUGACACGCAAAACGCGUGCUCCGUUGAAUGGAGUUUAUCAUG [U55A C57G C87G C93U U104G] | ≤ -4.2
8 | GGAUCUUCUCGAUCUAACAAAAAAGACAAAUCUGCCACAAAGCUUGAGAGCAUCAUUGGAUGCAGAGGCGGCAGCCUUCGGUGGCGCGAUAGCGCCAACGUUCUCAACUAUGACACGCAAAACGCGUGCUCCGUUGAAUGGAGUUUAUCAUG [U55A C57U] | 0.643
9 | GGAUCUUCUCGAUCUAACAAAAAAGACAAAUCUGCCACAAAGCUUGAGAGCAUCAUUGGAUGCAGAGGCGGCAGCCUUCGGUGGCGGGAUAGCGCCAACGUUCUCAACUAUGACACGCAAAACGAGUGCUCCGUUGAAUGGAGUUUAUCAUG [U55A C57U C87G C125A] | ≤ -4.2
10 | GGAUCUUCUCGAUCUAACAAAAAAGACAAAUCUGCCACAAAGCUUGAGAGCAUCAUUGGAUGCAGAGGCGGCAGCCUUCGGUGGCGGGAUAGCGCCAACGUUCUCAACUAUGACACUGAAAACGCGUGCUCCGUUGAAUGGAGUUUAUCAAG [U55A C57U C87G G117U C118G U151A] | ≤ -4.2
11 | GGAUCUUCUCGAUCUAACAAAAAAGACAAAUCUGCCACAAAGCUUGAGAGCAUCAUUGGAUGCAGAGUCGGCAGCCUUCGGUGGGGCGAUAGCGCCAACGUUCUCAACUAUGACACGCGAAACGUGUGCUCCGUUGAAUGGAGUUUAUCAUG [U55A C57U G68U C85G A119G C125U] | ≤ -4.2
12 | GGAUCUUCUCGAUCUAACAAAAAAGACAAAUCUGCCACAAAGCUUGAGAGCAUCAUCGGAUGAAGAGGCGGCAGCCUUCGGUGGCGCGAUAGCGCCAACGUUCUCAACUAUGACACGCAAAACGCGUGCUCCGUUGAAUGGAGUUUAUCAUG [U55A C63A] | -0.431
13 | GGAUCUUCUCGAUCUAACAAAAAAGACAAAUCUGCCACAAAGCUUGAGAGCAUCAUCGGAUGGAGAGGCGGCAGCUUGCGGUGGCGCGAUACCGCCAACGUUCUCAACUAUGACACGCAAAACGCGUGCUCCGUUUAAUGCAGUUUAUCAUG [U55A C63G C76U U78G G92C G136U G141C] | ≤ -4.2
14 | GGAUCUUCUCGAUCUAACAAAAAAGACAAAUCUGCCACAAAGCUUGAGAGCAUCAUCGGAUGCAGAGGCGGGAGCCUUCGGUGGCGCGAUAGCGCCAACGUUCUCAACUAUGCCACGCAAAACGCGUGCUCCGUUGAAUGGAGUUUAUCAUA [U55A C72G A113C G152A] | ≤ -4.2
15 | GGAUCUUCUCGAUCUAACAAAAAAGACAAAUCUGCCACAAAGCUUGAGAGCAUCAUCGGAUGCAGAGGCGGUAGCCUUAGGUGGCGCGAUAGCGCCAACGUUCUCAGCUAUGACACGCAAAACGCGUGCUCCGUUGAAUGGAGUUUAUCAUG [U55A C72U C79A A107G] | ≤ -4.2
16 | GGAUCUUCUCGAUCUAACAAAAAAGACAAAUCUGCCACAAAGCUUGAGAGCAUCAUCGGAUGCAGAGGCGGCAGUCUUCGGUGGCGCGAUUGCGCCAACGUUCUCAACUAUGACACGCAAAACCCGUGCUCCGUUUAAUGGAGUUUAUCAUG [U55A C75U A91U G124C G136U] | ≤ -4.2
17 | GGAUCUUCUCGAUCUAACAAAAAAGACAAAUCUGCCACAAAGCUUGAGAGCAUCAUCGGAUGCAGAGGCGGCAGCAUUCGGUGGCGCGAUAGCGCCAACGUUCUCAACUAUGACACGCAAAACGCGUGCUCCGUUGAAUGGAGUUUAUAAUG [U55A C76A C149A] | ≤ -4.2
18 | GGAUCUUCUCGAUCUAACAAAAAAGACAAAUCUGCCACAAAGCUUGAGAGCAUCAUCGGAUGCAGAGGCGGCAGCCUUCGGUGGAGCGAUAGCGCCAACGUUCUUAACUAUGACACGCAAAACGCGUGCUCCGAUGAAUGGAGUUUAUCAUG [U55A C85A C105U U134A] | ≤ -4.2
19 | GGAUCUUCUCGAUCUAACAAAAAAGACAAAUCUGCCACAAAGCUUGAGAGCAUCAUCGGAUGCAGAGGCGGCAGCCUUCGGUGGCGUGAUAGCGCCAACGUUCUCAACUAUGACACGCAAAACGCGUGCUCCGUUGAAUGGAGUUUAUCAUG [U55A C87U] | -1.1
